Read-outs that look alike come from different tables or passages of the source.
Target: human serum albumin (Homo sapiens, UniProt P02768)

C[C@@H]1[C@H](O)[C@@H](C)/C=C/C=C/C=C/C=C/C=C/C=C/C=C/[C@H](O[C@@H]2O[C@H](C)[C@@H](O)[C@H](N)[C@@H]2O)C[C@@H]2O[C@](O)(C[C@@H](O)C[C@@H](O)[C@H](O)CC[C@@H](O)C[C@@H](O)CC(=O)O[C@H]1C)C[C@H](O)[C@H]2C(=O)O [amphotericin B]
binding (amphotericin B to HSA) (Example II.35, 9.0 ml 0.8% HSA + 1.0 ml 4.0 mg/ml amphotericin B in dimethyl formamide, dialyzed against water at 4° C. for 20 hours): 99.6%

NC(=O)N1c2ccccc2C=Cc2ccccc21 [carbamazepin]
binding of carbamazepin to HSA (Example II.29, 4.0% HSA + 8.0 mg/ml carbamazepin in abs. ethanol 19:1, lyophilised, redissolved, UF): 98%

CC(=O)O[C@H]1C(=O)[C@@]2(C)[C@H]([C@H](OC(=O)c3ccccc3)[C@]3(O)C[C@H](OC(=O)[C@H](O)[C@@H](NC(=O)c4ccccc4)c4ccccc4)C(C)=C1C3(C)C)[C@]1(OC(C)=O)CO[C@@H]1C[C@@H]2O [paclitaxel]
binding of paclitaxel to human serum albumin (Example II.1, 20% HSA + 1 mg/ml paclitaxel in absolute ethanol 4:1, lyophilised, redissolved, UF filtrate and retentate): 99%
binding of paclitaxel to human serum albumin (Example II.2, 4.44% HSA + 2.0 mg/ml paclitaxel in absolute ethanol 9:1, lyophilised, redissolved, UF): 99%

From patent US8946167B2, “Pharmaceutical compositions containing plasma protein” (priority 1997, dated 2015)
